Out of some 390,000 compounds screened, about 930 (0.24%) were called active. The shares of active, inactive and inconclusive entries below differ from those in the screen. The call rests on the fitted dose curve; in most records, active means well fitted activation curve with a large enough effect; inconclusive means small, poorly fitted or top-dose-only effect; inactive means no such curve, though single readings can be large or run the other way. Potencies of inconclusive entries are doubtful fits and often do not repeat.
Test: qHTS for Suppressors of FUS Proteinopathy: Primary screen using FUS-linked yeast assay; further: nearly all actives have a fitted effect of over 55% in size
Settings: S. cerevisiae FUS-expressing, OD600, 24 h; Potency: growth rescue; series mostly up to 76.6 µM
Method in brief: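 FUS-expressing yeast, raffinose-pregrown, induced in 2% galactose minimal medium at OD 0.005; compounds in a dilution series, 24hr at 30C. Growth restoration read as absorbance at 600 nm. CP55940 positive control, DMSO negative.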
Potency means the concentration at half of the fitted maximal effect; tags describe the fitted curve by direction and shape.

| Structure (SMILES) | Potency |
| --- | --- |
| COc1ccccc1C(=O)Nc1cccc(S(=O)(=O)N2CCCC2)c1 | inconclusive: 11.2 µM [activator, single point] |
| O=C(CN1CCN(S(=O)(=O)c2ccc3ccccc3c2)CC1)NC(=O)NC1CCCCC1 | inconclusive: 11.2 µM [activator, partial curve, poor fit] |
| CN(C)c1ccc(NC(=O)CSC2=Nc3ccccc3C3=NC(CC(=O)NCc4ccc5c(c4)OCO5)C(=O)N23)cc1 (stereo unspecified) | inconclusive: 14.1 µM [activator, partial curve, poor fit] |
| CCN(Cc1ccc(OC)c(F)c1)C(=O)c1oc2ccccc2c1COC | inconclusive: 31.6 µM [activator, partial curve, poor fit] |
| Cc1cccc(-n2ncc(C(=O)Nc3ccc4c(c3)OCO4)c2C2CCN(C(=O)OC(C)(C)C)CC2)c1 | inconclusive: 50.1 µM [activator, single point] |
| Cc1ccc(C(C)C)c(OCC(=O)NNCC(=O)Nc2cccc(F)c2)c1 | inconclusive: 22.4 µM [activator, single point] |
| CCOC(=O)[C@]12CCCC=C1N(CCc1ccc(OC)c(OC)c1)C(=O)[C@H](CC(=O)NCCCCc1ccccc1)C2 | inconclusive: 14.1 µM [activator, partial curve, poor fit] |
| O=c1c2ccccc2nc2n1CCc1c-2[nH]c2ccccc12 | inactive |
| Cc1ccc(Cn2c(C)c3cnn(CC(=O)N4CCN(c5ccc(F)cc5)CC4)c(=O)c3c2C)cc1 | inconclusive: 39.8 µM [activator, single point] |
| COc1ccc(-n2c(COc3cccc(C)c3)nnc2SCC(=O)O)cc1 | inconclusive: 39.8 µM [activator, single point] |
| COc1ccc(OC)c(C2CC(=O)c3c([nH]c(C(=O)OCC4CCCO4)c3C)C2)c1 (stereo unspecified) | inactive |
| COc1cc(OC)c(OC)cc1/C=C1\Oc2cc(OCC(=O)N3Cc4ccccc4C[C@H]3C(=O)O)ccc2C1=O | inconclusive: 50.1 µM [activator, single point] |
| Cc1cccc(C)c1NC(=O)C(C1CC1)n1c(-c2ccc(C(F)(F)F)cc2)nc2ccccc21 (stereo unspecified) | inconclusive: 10 µM [activator, partial curve, poor fit] |
| COc1ccc(-n2c(Cc3cccn3C)nnc2SCC(=O)Nc2ccc(C)c(Cl)c2)cc1 | inconclusive: 10 µM [activator, full curve] |
| O=C(O)CCCCCCCCc1cn(CCc2c[nH]c3ccccc23)nn1 | inactive |
| C=C(C)CN=C1NN=C(c2cc(C)n(-c3ccc(C)cc3)c2C)CS1 | inconclusive: 7.94 µM [activator, full curve] |
